The campaign covered roughly 45,000 compounds. About 200 (0.44%) were called active. Inconclusive results (about 7%) are left out. Calls follow the shape of the dose curve; as a rule, active = well fitted activation curve with a large enough effect; inconclusive = small, poorly fitted or top-dose-only effect; inactive = no such curve, though single readings can be large or run the other way. The list shows a part of the results.
assay: qHTS of TDP-43 Inhibitors: NCGC Sytravon Library Screen; details: yeast TDP-43 toxicity rescue, BacTiter-Glo growth, 24 h; series mostly up to 46.1 µM; growth rescue (activation): at the top concentration; also: 0% is about no effect; nearly all actives have a fitted effect of over 55% in size
Summary of the method: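 TDP-43-expressing yeast, pregrown in raffinose, seeded at OD600 0.02 in galactose medium with compound for 24 hr at 30 deg C. Growth read by BacTiter-Glo luminescence, so rescue of toxicity appears as activation.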

Structure (SMILES)	growth rescue (activation)
Cn1nccc1C(=O)N1CCc2c([nH]c3ccccc23)C1c1ccc(F)cc1 (configuration not stated)	inactive: 0.776%
Cc1ccc(S(=O)(=O)CCC(=O)Nc2nc3c(s2)CCCC3)cc1	inactive: 16%
O=C(O)c1ccc(C(=O)c2ccc3c(c2)C(=O)N(CCO)C3=O)cc1	inactive: -6.46%
Cc1onc(-c2ccccc2Cl)c1C(=O)OCC(=O)c1c(N)n(C)c(=O)n(C)c1=O	inactive: -2.65%
CC(NC(=O)c1ccc2c(c1)OCO2)c1ccccc1 (configuration not stated)	inactive: -1.02%
C=CCn1c[n+](CC(=O)c2ccc(Br)s2)c2ccccc21	inactive: -16.2%
Cn1c(N)c(C(=O)COC(=O)COc2cc(Cl)c(Cl)cc2Cl)c(=O)n(C)c1=O	inactive: 3%
COc1ccc(C2c3ccc4ccccc4c3Oc3ncn(CCCN(C)C)c(=N)c32)cc1 (configuration not stated)	inactive: -14.7%
CN(C(=O)CCNC(=O)Cn1ccc2ccccc2c1=O)c1ccc(Br)cc1	inactive: 9.63%
Nn1cnnc1SCC(=O)Nc1ccc2c(c1)OCO2	inactive: -0.725%
CCCNC(=O)Cn1nc(C(F)(F)F)cc1C	inactive: -13.1%
COc1cc([N+](=O)[O-])cc(/C=N/NC(=O)C(C)Nc2cccc3ccccc23)c1O (configuration not stated)	inactive: 28.2%
COc1ccc(OC)c(/C=N/NC(=O)CN2CCSCC2)c1	inactive: -1.78%
CCCCN(C(=O)c1ccc(NC(=O)C(C)C)cc1)c1ccccc1	inactive: 13.5%
O=C(NCC1(O)CCCCC1)C1CCC(=O)N(Cc2ccccc2F)C1 (configuration not stated)	inactive: 20.1%
CCC(=O)Nc1ccc(NC(=S)NC(=O)c2oc3ccccc3c2C)cc1	inactive: 2.89%
Cc1ccccc1OCC(=O)Nc1cnn(CCCC(=O)O)c1	inactive: 8.31%
COCCNc1nc(NCc2ccccc2OC)c2sccc2n1	inactive: 6.18%
CCOC(=O)C1CN(S(=O)(=O)c2ccc(Cl)cc2)c2cc(S(=O)(=O)CC)ccc2O1 (configuration not stated)	inactive: 3.32%
CCOC(=O)N1CCC(N2CCCC(C(=O)c3cc(F)ccc3OC)C2)CC1 (configuration not stated)	inactive: -8.75%
COc1ccccc1-c1csc(NC(=O)c2cc(-c3cccs3)nc3ccccc23)n1	inactive: 8.15%
COc1ccc(CCC(=O)N2CCN(c3ccc([N+](=O)[O-])cc3)CC2)cc1OC	inactive: 13.5%
O=C(Nc1ccc(S(=O)(=O)Nc2nccs2)cc1)c1ccc(S(=O)(=O)N2CCOCC2)cc1	inactive: 10.7%

Structure (SMILES)	growth rescue (activation)
COC(=O)CCC(=O)Nc1c(C)n(C)n(-c2ccccc2)c1=O	inactive: -7.5%
O=C(/C=C\Nc1ccc2c(c1)OCO2)c1ccc(Cl)s1	inactive: 9.35%
CN(c1ccc(C(=O)NC2CCCC2)cc1)S(=O)(=O)c1ccccc1	inactive: 12.5%
O=C1N(Cc2cccc(Cl)c2)C[C@@H]2C[C@@H](c3cccc4cccnc34)N3CCC[C@@]123	inactive: -9.56%
CCn1c(SCC(=O)Nc2ccc3c(c2)OCCO3)nnc1-c1ccncc1	inactive: 6.51%
CCOC(=O)C1=C(C)C2C3C(=O)N(c4ccccc4C)C(=O)C3C1(C)C1C(=O)N(c3ccccc3C)C(=O)C21 (configuration not stated)	inactive: -7.67%
COc1ccc2c(C)cc(SCn3nnc4ccccc4c3=O)nc2c1	inactive: 22.5%
Cn1nc([N+](=O)[O-])c(C(C#N)c2nc3ccccc3n2C)c(Cl)c1=O (configuration not stated)	inactive: 7.47%
O=C(CCn1c2c(c3ccccc31)CCCC2)NNC(=O)c1ccccc1[N+](=O)[O-]	inactive: 12.8%
COCCN(C(=S)Nc1ccc(C)cc1)C(C)c1cccnc1 (configuration not stated)	inactive: 5.57%
Cc1nnc(CN(C)Cc2cn[nH]c2-c2ccc(-c3ccccc3)cc2)o1	inactive: 13.3%
O=C(Nc1cccc(Cl)c1)c1ccc2c(=O)n3c(nc2c1)CCCCC3	inactive: -35.4%
O=C(NC1CCN(S(=O)(=O)c2ccccc2F)CC1)c1ccco1	inactive: 16.5%
COCCNC(=O)C(=O)NNS(=O)(=O)c1ccc(Cl)cc1	inactive: 5.91%
Cc1ccc2c(Cl)c(C(=O)NCCc3ccccc3)sc2c1	inactive: 5.63%
CCOc1ccc2c(c1)nc(NCCCO)n2Cc1ccccc1	inactive: 0.255%
O=C(NCC(O)c1ccc([N+](=O)[O-])cc1)C1=COCCO1 (configuration not stated)	inactive: 13.5%
Cn1nnnc1SCC(=O)Nc1sccc1C(N)=O	inactive: 6.11%
C/C(=N\NC(=O)c1ccoc1C)c1cccc2ccccc12	inactive: 17.4%
Cc1ccc(CCN2CC(C(=O)NCc3ccc4c(c3)OCO4)CC2=O)cc1 (configuration not stated)	inactive: 19.1%
COc1ccc(OC)c(NC(=O)Nc2nnc(COCCO)s2)c1	inactive: 1.4%
Cc1ccc(-n2ncc(-c3nnc(SCC(=O)NC4CCCC4)o3)c2N)cc1C	inactive: 23.5%
CCCCNC(=O)C1(C)CCCCN1Cc1ccc(-c2ccccc2)cc1 (configuration not stated)	inactive: 13.8%

Structure (SMILES)	growth rescue (activation)
Cc1cc(SCC(=O)N/N=C/c2ccccc2C(=O)O)c(C)cc1Br	inactive: 5.49%
NS(=O)(=O)c1ccc(NC(=O)c2ccc(F)cc2F)c(NC(=O)c2ccc(F)cc2F)c1	inactive: 1.13%
COc1cc(NC(=O)c2cc3ccccc3o2)ccc1NC(=O)c1ccco1	inactive: -12.7%
CCc1nc2ccc(C(=O)N3CCN(C(=O)c4ccco4)CC3)cn2c1N(C)C(=O)C1CCCCC1	inactive: 4.4%
CCOc1ccc(/C=C/C(=O)Nc2ccc3[nH]c(=O)[nH]c3c2)cc1	inactive: 7.24%
NNC(=O)c1cc(Cl)ccc1Cl	inactive: 17.8%
CC(=O)Nc1ccc(Sc2ccccc2C(=O)O)cc1	inactive: -31.7%
CCOCCc1nnc(NC(=O)CCS(=O)(=O)c2ccccc2)s1	inactive: 18.1%
CC(C)[C@H](NC(=O)OCc1ccccc1)C(=O)OCC(=O)Nc1c(F)cccc1F	inactive: 14.9%
COc1ccc(CCNC(=O)Cn2c(=O)n(-c3ccc(F)cc3F)c(=O)c3sccc32)cc1OC	inactive: 6.26%
CCn1cc(C(=O)NC2CCCC2)c(=O)c2cc(S(=O)(=O)N3CCOCC3)ccc21	inactive: 4.52%
Cc1ccccc1C(=O)NCC(=O)N1CCN(c2ccccn2)CC1	inactive: 4.02%
Cc1nc2ccccn2c1C(=O)c1ccccc1	inactive: 11.6%
Cc1ccc(C(C(=O)NC2CCCCC2)N(C(=O)Cc2c[nH]c3ccccc23)c2ccccc2C)o1 (configuration not stated)	inactive: 8.58%
NC1=NC2(CCCC2)n2c(nc3ccccc32)N1	inactive: -6.15%
CC1=C(C(=O)OCc2ccccc2)C(c2ccccn2)c2c(n(C)c(=O)n(C)c2=O)N1 (configuration not stated)	inactive: 3.85%
CCOC(=O)/C(=N/Nc1ccccc1OC)N1CCCc2ccccc21	inactive: 7.97%
O=C(Nc1ccc(C(=O)O)cc1)Nc1ccc(F)cc1F	inactive: 13.7%
Cc1cc(C(=O)OC(C(=O)Nc2ccc(C)c(Cl)c2)c2ccccc2)c(C)o1 (configuration not stated)	inactive: -5.48%
CCOC(=O)N1CCN(C(=O)C2CCCN(c3ncnc4c3nc3n4CCCCC3)C2)CC1 (configuration not stated)	inactive: 7.39%
Cc1cc([N+](=O)[O-])nn1CC(=O)Nc1ccc(Cl)cn1	inactive: 1.23%

— PubChem BioAssay AID1347073 (National Center for Advancing Translational Sciences (NCATS), 2019)
